# Assay results published in ChEMBL document CHEMBL4888484, “Replenishing the malaria drug discovery pipeline: Screening and hit evaluation of the MMV Hit Generation Library 1 (HGL1) against asexual blood stage Plasmodium falciparum ,using a nano luciferase reporter read-out” (2022).
# In all, about 150,000 compounds went through this assay and about 540 (0.36%) showed an effect of 50% or more. The list shows a part of the results.
# System: Plasmodium falciparum
# Experiment: Primary screen in NF54 nanoGlo assay, in single point, at 2uM, 72h; a lower Z score goes with more inhibition
# Type: functional, Erythrocyte
# Details: timepoint 72 hour
Structure (SMILES),% Inhibition [%],Z score
O=C1C2C(c3cccnc3)NC(c3cccnc3)C1C(c1cccnc1)NC2c1cccnc1 (stereo not drawn),-9,1.69
CC[C@H]1OCC[C@@H]1NS(=O)(=O)c1sccc1Cl,3,-0.69
COc1cc(F)ccc1-c1ccnc2nc(-c3ccco3)nn12,-11,1.34
CC(C)[C@H]1CN(C2CCCC2)C[C@@H]1NC(=O)c1ccnn1C,-5,0.49
CN1CCC(N(Cc2ccncc2)C(=O)Nc2ccc3c(c2)OCO3)CC1,-16,3.11
CCOc1cc([C@@H]2c3nc[nH]c3CCN2Cc2[nH]cnc2C)ccc1O,-5,0.83
Cc1ccc(-n2cc(-c3noc(-c4ccc[nH]4)n3)nn2)cc1,-6,1.16
COc1ccc(OC)c(NC(=O)N(C)[C@H]2COC[C@@H]2O)c1,-9,1.72
O=C(Nc1ccsc1)c1cc(N2CCNC2=O)ccc1F,-5,0.64
Cc1ccc(Cn2c(=O)c(C(=O)NCc3cccnc3)nn(-c3ccccc3F)c2=O)cc1,-3,0.48
COc1cc(CN2CC[C@H](c3ccccn3)C2)ccc1O,-9,0.88
CN(Cc1cscn1)c1ncccc1C(=O)Nc1ccc(Br)cc1,-7,0.61
N#C[C@@H](NC(=O)CCc1ccc(Cl)s1)c1ccsc1,-1,0.08
COCc1nsc(N2CCC(CN3CCCCC3=O)CC2)n1,-14,1.62
CCCN(CCC)c1ccc(NS(=O)(=O)c2ccc(Cl)s2)cc1C(=O)O,-2,0.18
Cc1ocnc1CNc1cncc(-n2ccnc2C)n1,32,-3.65
COC[C@@H]1C[C@@H](OC)CN1C(=O)NCc1ccnc(C)c1,-3,0.47
COc1ccc(-c2cc3c(=O)n(CCNC(=O)Cc4ccc(F)cc4)ccn3n2)cc1,-7,1.17
COc1ccc(CNC(=O)Cn2ncc3c(N4CCOCC4)ncnc32)c(OC)c1,-13,1.42
CC(C)CS(=O)(=O)NCc1nncn1CCc1ccccc1,-8,1.24
O=C(O)C1(C[C@H]2CCCCO2)CCN(c2ncnc3ccsc23)CC1,-1,0.18

Structure (SMILES),% Inhibition [%],Z score
CC(=O)Nc1nc2ccc(NC(=O)c3cc(C4CC4)on3)cc2s1,5,-0.71
O=C(NCc1nc(-c2ccncc2)no1)NC1CCCCC1,-10,1.56
COc1ccc(C(=O)N(CCN2CCOCC2)CC(=O)N2CCN(c3ccc(-c4cccc(OC)c4)nn3)CC2)cc1,-12,1.82
N#Cc1cnn(-c2ccc(NC(=O)c3cc4c(s3)CCCCCC4)cc2)c1N,-7,0.93
CC(=O)Nc1ccc(S(=O)(=O)N2CCC[C@H]2c2cccs2)cc1,-3,0.6
COc1ccc(C2(C(=O)N(C)c3nc(C)cs3)CC3(CCC3)C2)cc1,4,-0.86
Cc1nc(-c2ccccc2CO)c2c(C)noc2n1,-8,1.36
Cc1cncc(C)c1NC(=O)[C@H](C)c1cccs1,19,-2.35
COc1cc(C)c(-c2ccc(C(=O)N3CCCCCC3)cc2)cn1,-10,1.56
CCOc1ncc(C(=O)N2CCC3(C2)OCCO3)cc1Cl,-6,0.56
CCCc1nc(-c2c(C)cc(C)nc2NC(=O)C2CCCCC2)no1,-1,0.07
COc1cc(C)nc(CN2CCOc3ccc(OC)cc32)c1,0,0.09
O=C1N[C@H]2CCC[C@@H]1CN(C(=O)Nc1cccc(-c3cscn3)c1)C2,-3,0.68
Cc1ccccc1CCC(=O)N1CCC(N2C(=O)CNC2=O)CC1,-15,2.83
O=C(Cc1ccsc1)N1CCCC[C@H](c2ccccc2)C1,7,-0.99
Cn1cnc(C(=O)N2CCC(COc3cc(C4CC4)ncn3)CC2)c1,-10,1.15
Cc1nn(CCC(=O)N2CC(=O)N(c3ccccc3C#N)C[C@@H]2C)c(C)c1C,8,-1.49
CCOc1ccc(CCN2CN(Cc3ccccc3)c3nc4ccccc4n3C2)cc1OCC,-3,0.51
CC1CCN(C(=O)c2ccc(NCCc3ccccn3)nc2)CC1,-10,1.39
Cc1ccccc1CN1CCCN(C(=O)C2=NN(C)C(=O)CC2)CC1,1,-0.06
O=C(NCCS(=O)(=O)c1ccccc1F)Nc1ccccc1,-11,1.17

Structure (SMILES),% Inhibition [%],Z score
Cc1cnc(NC(=O)CC2CCCC(C)C2)[nH]1 (stereo not drawn),-8,0.92
CC(C)CN1C[C@H](c2noc(-c3cn(C)cn3)n2)C2(CCOCC2)C1,4,-0.54
COc1ccc(-c2cn(-c3ccc(C)cc3)c(NC(=O)CN(Cc3ccccc3)C(=O)C(C)C)n2)cc1,10,-1.21
O=C(CCNc1c(-c2cccc(F)c2)nc2cnccn12)Nc1ccccc1,-11,1.72
O[C@H]1C[C@@H]2CN(Cc3ccccc3OC(F)(F)F)C[C@@H]2C[C@@H]1O,-6,0.58
C[C@H](Nn1cnnc1)c1cc(Cl)ccc1O,-11,1.69
Cc1noc(C2CCN(C(=O)[C@H]3CCS(=O)(=O)C3)CC2)n1,-10,1.24
Cc1ccc(CC(=O)N[C@H]2CS(=O)(=O)C2(C)C)cc1Cl,-4,0.82
CCN(C(=O)CCc1ccco1)c1ccc(NC(=O)CCc2ccco2)c(C(F)(F)F)c1,-5,0.8
Cc1cc(C)n(S(=O)(=O)c2cccc3nsnc23)n1,-6,0.82
Cc1ccc2c(c1)nnn2CNc1ccc2ncccc2c1,-8,1.23
COc1nc(NCC2(CC(C)C)CCC2)ncc1F,-9,1.41
COc1cc([C@H](C(=O)Nc2c(C)cccc2C)N(Cc2ccco2)C(=O)c2ccc(-n3cnnn3)cc2)ccc1O,10,-1.36
CN(Cc1ccco1)C(=O)c1cn2c(n1)CCCC2,-5,0.79
CCc1cc(C(=O)NC[C@@H]2COc3ccccc3C2)[nH]n1,-7,1.36
O=C(C1CCN(Cn2nc3ccccn3c2=O)CC1)N1CCCC1,-10,1.91
O=C(c1cscn1)N1CC2(C[C@H](N3CCOCC3)CO2)C1,-14,2.23
Cc1n[nH]c(C)c1NC(=O)CN1CCN(c2ccccc2)[C@@H](C)C1,12,-1.6
Cc1cc(F)ccc1NC(=O)c1cc2c(=O)n(CC(C)C)ccc2n1C,-16,1.56
COCc1nc([C@H]2CCOC(C)(C)C2)n(-c2ccc(F)c(F)c2)n1,-1,0.21
Cc1cc(CN(C)C(=O)c2cc(C(C)C)oc2C)no1,1,-0.11

Structure (SMILES),% Inhibition [%],Z score
CC[C@H](C)N(Cc1csc(COc2ccccc2C)n1)C(=O)c1cccc(Br)c1,6,-0.52
CCc1nc2ccccc2c(N2CCC3OCC(=O)NC3C2)c1C (stereo not drawn),-11,1.03
COc1ccc(Cl)cc1NS(=O)(=O)c1cc(-c2noc(C(=O)N3CCOCC3)n2)cs1,-6,0.63
CCc1cccc2c([C@H](CC(=O)NCCOC)CC(C)C)c[nH]c12,-1,0.11
Nc1ccc(Oc2ccc(-c3cc(F)cc4cccnc34)cc2)nc1,-6,1.07
CC1CCCCC1NC(=O)C1CCC(CNS(=O)(=O)c2ccc3c(c2)C(C)(C)C(=O)N3C)CC1 (stereo not drawn),-17,1.65
O=C(C1CCS(=O)(=O)CC1)N(CC#Cc1ccccc1)C1CCCC1,-16,1.57
C[C@@H]1Oc2ccc(NC(=O)COc3ccc(F)cc3)cc2NC1=O,-2,0.37
Cc1nocc1NC(=O)N[C@@H]1c2ccccc2CC[C@@H]1O,-2,0.39
Cc1ocnc1CNC(=O)C1CCCCCC1,-21,2.96
Cc1ccc(OCc2ccccc2)c(NC(=O)N2CC[C@H](CO)C2)c1,0,-0.03
Cc1ccc(-c2coc(-c3ccc(NC(=O)COc4ccccc4C)cc3)n2)c(C)c1,-2,0.43
CCc1ccc(S(=O)(=O)C2CS(=O)(=O)CC2NC2CCCCCC2)cc1 (stereo not drawn),-6,0.71
COc1cccc(CNC(=O)Cn2nc3c4cc(F)ccc4ncn3c2=O)c1,-2,0.29
CC(C)NC(=O)N1CC[C@@](C)(O)[C@@H](NC(=O)CC(C)(C)C)[C@@H]1c1cccs1,-15,2.36
Cc1ccc(C)c(-n2nc(-c3ccccc3)nc2Cn2cc(C)c(=O)[nH]c2=O)c1,5,-0.65
Cc1cccc(NC(=O)[C@@H](C#N)C(=O)C2CC2)c1,-8,1.1
COc1ccc(C(=O)N2CCC3(CC[C@@H]3N3CCOCC3)CC2)cn1,-6,0.72
CCCN(CC#N)S(=O)(=O)c1cc(C)ccc1Br,-11,1.75
CC1CN(S(=O)(=O)CC(C)(C)C)CC2(CCOC2)O1 (stereo not drawn),-11,1
O=C(NCCc1cccnc1)N1CCCC[C@H](N2CCCC2)C1,3,-0.34
